Experimental data: patent publication US9573895B2, “Tetracycline compounds” (Tetraphase Pharmaceuticals, Inc., priority 2012, dated 2017)

Tested on: K. pneumoniae UNT023-1(KPC producing strain)
Experiment: Mouse Pneumonia Study
Conditions: female CD-1 mice; for Log10 change from 2 hr Control / Log10 change from 24 hr Control: BID @ 2 and 12 hrs; for Mean log10 CFU/pair Lung: BID @ 2 and 12 hrs post-infection, 24 hour lung CFU

For `CN(C)c1cc(NC(=O)CNC(C)(C)C)c(O)c2c1C[C@H]1C[C@H]3[C@H](N(C)C)C(O)=C(C(N)=O)C(=O)[C@@]3(O)C(O)=C1C2=O` [Tigecycline, tigecycline], the “Log10 change from 2 hr Control” value (80 mg/kg/dose IV) was 0.73 Log10, the “Log10 change from 24 hr Control” value (80 mg/kg/dose IV) was −1.23 Log10 and the “Mean log10 CFU/pair Lung” value (80 mg/kg/dose IV) was 8.27 log10 CFU/pair Lung.
In the case of `CCN(C)[C@@H]1C(O)=C(C(N)=O)C(=O)[C@@]2(O)C(O)=C3C(=O)c4c(O)cc(C5CCCN5)c(C(F)(F)F)c4C[C@H]3C[C@@H]12` (single isomer, unassigned) [Compound S4-14-5-A], the “Log10 change from 2 hr Control” value (5 mg/kg/dose IV) is reported as 1.58 Log10, the “Log10 change from 24 hr Control” value (5 mg/kg/dose IV) is reported as −0.38 Log10 and the “Mean log10 CFU/pair Lung” value (5 mg/kg/dose IV) is reported as 9.11 log10 CFU/pair Lung. The “Log10 change from 2 hr Control” value (15 mg/kg/dose IV) was −0.03 Log10, the “Log10 change from 24 hr Control” value (15 mg/kg/dose IV) was −1.99 Log10 and the “Mean log10 CFU/pair Lung” value (15 mg/kg/dose IV) was 7.51 log10 CFU/pair Lung. The “Log10 change from 2 hr Control” value (40 mg/kg/dose IV) was −0.85 Log10, the “Log10 change from 24 hr Control” value (40 mg/kg/dose IV) was −2.81 Log10 and the “Mean log10 CFU/pair Lung” value (40 mg/kg/dose IV) was 6.69 log10 CFU/pair Lung.
With `CCN(CC)[C@@H]1C(O)=C(C(N)=O)C(=O)[C@@]2(O)C(O)=C3C(=O)c4c(O)cc(C5CCCN5)c(C(F)(F)F)c4C[C@H]3C[C@@H]12` (single isomer, unassigned) [Compound S4-14-14-A] the “Log10 change from 2 hr Control” value (5 mg/kg/dose IV) was 1.63 Log10, the “Log10 change from 24 hr Control” value (5 mg/kg/dose IV) was −0.33 Log10 and the “Mean log10 CFU/pair Lung” value (5 mg/kg/dose IV) was 9.16 log10 CFU/pair Lung. For the same compound, the “Log10 change from 2 hr Control” value (15 mg/kg/dose IV) was −0.83 Log10, the “Log10 change from 24 hr Control” value (15 mg/kg/dose IV) was −2.79 Log10 and the “Mean log10 CFU/pair Lung” value (15 mg/kg/dose IV) was 6.71 log10 CFU/pair Lung. The “Log10 change from 2 hr Control” value (40 mg/kg/dose IV) was −1.22 Log10, the “Log10 change from 24 hr Control” value (40 mg/kg/dose IV) was −3.18 Log10 and the “Mean log10 CFU/pair Lung” value (40 mg/kg/dose IV) was 6.32 log10 CFU/pair Lung.
With `CCN(C)[C@@H]1C(O)=C(C(N)=O)C(=O)[C@@]2(O)C(O)=C3C(=O)c4c(O)cc5c(c4C[C@H]3C[C@@H]12)N(C)CC1CCN(C)C51` (single isomer, unassigned) [Compound S5-10-3-B] the “Log10 change from 2 hr Control” value (5 mg/kg/dose IV) was 0.08 Log10, the “Log10 change from 24 hr Control” value (5 mg/kg/dose IV) was −1.88 Log10 and the “Mean log10 CFU/pair Lung” value (5 mg/kg/dose IV) was 7.62 log10 CFU/pair Lung. The “Log10 change from 2 hr Control” value (15 mg/kg/dose IV) was −0.62 Log10, the “Log10 change from 24 hr Control” value (15 mg/kg/dose IV) was −2.58 Log10 and the “Mean log10 CFU/pair Lung” value (15 mg/kg/dose IV) was 6.92 log10 CFU/pair Lung. The “Log10 change from 2 hr Control” value (40 mg/kg/dose IV) was −1.26 Log10, the “Log10 change from 24 hr Control” value (40 mg/kg/dose IV) was −3.21 Log10 and the “Mean log10 CFU/pair Lung” value (40 mg/kg/dose IV) was 6.28 log10 CFU/pair Lung.
